Measurements from US20240024337A1, “INTERACTION OF SARS-COV-2 PROTEINS WITH MOLECULAR AND […] […] HOST CELLS AND FORMULATIONS TO TREAT COVID-19” (AKSEERA PHARMA CORP., priority 2020, published 2024).
Read-outs that look alike come from different tables or passages of the source.

Assays:
[1] = test system: HEK293 cells transfected with control plasmid (pCMV) or plasmids expressing ORF8, ORF10 or M protein; assay: Apoptosis assay: early (pSIVA) and late (propidium iodide) apoptosis index, Kinetic Apoptosis Kit; details: for early apoptosis index (pSIVA) / late apoptosis index (PI) / Early Apoptosis Index / Late Apoptosis Index / early apoptosis (pSIVA) / late apoptosis (PI): 24 h; for early apoptosis, dose-dependent effects / late apoptosis, dose-dependent effects: dose response 0-2 μM; for early apoptosis (pSIVA) / late apoptosis (PI): concentration not given
[2] = test system: HEK293 (human embryonic kidney) cells transfected with empty control vector (pCMV-3Tag-3a) or vectors expressing the viral Orf8, Orf10 or M proteins; assay: Cell proliferation study by BrdU incorporation (colorimetric ELISA); details: 24 h, not normalized to cell number
[3] = test system: HEK293 cells transfected with control plasmid (pCMV) or plasmids expressing ORF8, ORF10 or M protein; format: cell-based, human
[4] = cells expressing M protein, 1 μM, comparator as stated in the block
[5] = cells expressing ORF8, ORF10 or M-protein, 1 μM, vs control (pCMV) cells treated with the same cannabinoid
[6] = cells expressing ORF8, 1 μM, comparator as stated in the block
[7] = cells expressing ORF10, 1 μM, comparator as stated in the block
[8] = control plasmid cells, 1 μM, vs vehicle
[9] = cells expressing ORF8, ORF10 and M protein
[10] = cells expressing ORF8, ORF10 and M protein, listed as CBD
[11] = control plasmid (pCMV), listed as CBD
[12] = cells expressing ORF8, 2 μM, numbers vs vehicle-treated cells
[13] = cells expressing ORF10, 2 μM, numbers vs vehicle-treated cells
[14] = control plasmid cells, 2 μM, vs vehicle
[15] = cells expressing M protein, 2 μM, numbers vs vehicle-treated cells

| SMILES | early apoptosis index (pSIVA) [1, 4] | late apoptosis index (PI) [1, 4] | Early Apoptosis Index [1, 5] | early apoptosis index (pSIVA) [1, 6] | early apoptosis index (pSIVA) [1, 7] | late apoptosis index (PI) [1, 7] | early apoptosis index (pSIVA) [1, 8] | late apoptosis index (PI) [1, 8] | early apoptosis, dose-dependent effects [1, 9] | late apoptosis, dose-dependent effects [1, 9] | expression of OAS1 ([3]; 1 μM, 24 h) | expression of OASL ([3]; 1 μM, 24 h) | gene expression of Type I INF (interferon-alpha, interferon-beta) ([3]; 1 μM, 24 h) | late apoptosis index (PI) [1, 6] | late apoptosis index (PI) [1, 12] | early apoptosis index (pSIVA) [1, 13] | late apoptosis index (PI) [1, 13] | early apoptosis index (pSIVA) [1, 14] | late apoptosis index (PI) [1, 14] | also measured |
| --- | --- | --- | --- | --- | --- | --- | --- | --- | --- | --- | --- | --- | --- | --- | --- | --- | --- | --- | --- | --- |
| C=C(C)[C@@H]1CCC(C)=C[C@H]1c1c(O)cc(CCCCC)c(C(=O)O)c1O [CBDA, Cannabidiolic acid] | significant increases | significant increases | significantly greater levels of early or late apoptosis | significant increases | significant increases | significant increase | do not show any significant increase | do not show any significant increase | – | – | – | – | – | – | – | – | – | – | – | Late Apoptosis Index ([1]; cells expressing ORF10 or M-protein, 1 μM, vs control cells treated with the same cannabinoid): significantly greater levels of early or late apoptosis |
| C=C(C)[C@@H]1CCC(C)=C[C@H]1c1c(O)cc(CCCCC)cc1O [Cannabidiol, 2-[(1R,6R)-3-Methyl-6-(1-methylethenyl)-2-cyclohexen-1-yl]-5-pentyl-1,3-benzenediol] | – | – | – | – | – | – | – | – | significant increases | significant increases | – | – | – | – | – | – | – | – | – | BrdU incorporation ([2]; control plasmid (pCMV-3Tag-3a) cells, 1 μM cannabinoid): does not reduce cell proliferation; expression of IFIT ([3]; 1 μM, 48 h): enhanced; IFIT and Mx gene expression ([3]; 2 μM, 14 h): not significantly altered; expression of INFλ1 ([3]; 2 μM, 14 h): 3 fold; expression of OAS2 (FIGS. 14A-14C) ([3]; 2 μM, 14 h): more enhanced production; expression of OAS3 ([3]; 2 μM, 14 h): more enhanced production; expression of OASL ([3]; 2 μM, 14 h): more enhanced production; gene expression of Type I INFs (INFα and INFβ) ([3]; 2 μM, 14 h): not significantly altered; induction of INFλ1 ([3]; 2 μM, 14 h): further augmented; ability to enhance early or late apoptosis in the presence of viral proteins, comparison of the cannabinoids tested ([1]; HEK293 cells transfected with viral proteins): most effective; early apoptosis, dose-dependent effects [1, 10]: dose-dependent effect; late apoptosis, dose-dependent effects [1, 10]: dose-dependent effect; early apoptosis (pSIVA) ([1]; cells expressing ORF8, FIG. 9A): significant increases; late apoptosis (PI) ([1]; cells expressing ORF8, FIG. 9B): significant increases; early apoptosis, dose-dependent effects [1, 11]: not observed; late apoptosis, dose-dependent effects [1, 11]: not observed; early apoptosis (pSIVA) ([1]; control plasmid, FIGS. 9A/9C/9E): do not show any significant increase; late apoptosis (PI) ([1]; control plasmid, FIGS. 9B/9D/9F): do not show any significant increase |
| CCCCCc1cc(O)c(C/C=C(\C)CCC=C(C)C)c(O)c1 [Cannabigerol] | significant increases | significant increases | – | significant increases | significant increases | significant increases | – | – | significant increases | significant increases | enhanced | more enhanced production | did not differ significantly | significant increase | significant increases | significant increases | significant increase | significant increase | significant increase | expression of OAS3 ([3]; 1 μM, 24 h): augments; Early Apoptosis Index ([1]; cells expressing ORF8, ORF10 or M-protein, 1 μM, vs vehicle only, listed as CBG): augments apoptosis above levels resulting just from viral proteins but not above control levels; Late Apoptosis Index ([1]; cells expressing ORF8, ORF10 or M-protein, 1 μM, vs vehicle, listed as CBG): augments apoptosis above levels resulting just from viral proteins but not above control levels; early apoptosis index (pSIVA) ([1]; control plasmid cells, 1 μM, vs vehicle, listed as Cannabigerol (CBG)): present, by 1.85-fold |
| CCCCCc1cc(O)c2c(c1)OC(C)(C)c1ccc(C)cc1-2 [cannabinol, Cannabinol] | significant increases | significant increases | – | significant increases | significant increases | significant increases | significant increase | significant increase | significant increases | significant increases | not significantly enhanced | more enhanced production | did not differ significantly | significant increases | significant increases | significant increases | significant increases | significant increase | significant increase | expression of Interferon lambda 1 ([3]; 1 μM, 24 h): significantly augmented; expression of OAS2 ([3]; 1 μM, 24 h): enhanced; Type II Interferon gene expression: significant augmentation of interferon-gamma expression ([3]; 24 hours): 24 hours does not; Early Apoptosis Index, fold increase in control cells (viral proteins not present) ([1]; 1 μM CBN, control cells, significantly increased): 1.82-fold.; Late apoptosis compared with control cells levels in cells expressing M-protein ([1]; 2 μM CBN (text 2 mM), M-protein): CBN augmented; early apoptosis index (pSIVA) [1, 15]: significant increases; late apoptosis index (PI) [1, 15]: significant increases; Late Apoptosis Index ([1]; cells expressing ORF8, ORF10 or M-protein, 1 μM, vs vehicle): augments apoptosis above levels resulting just from viral proteins; Early Apoptosis Index ([1]; cells expressing ORF8, ORF10 or M-protein, 1 μM, vs vehicle only): augments apoptosis above levels resulting just from viral proteins; Late Apoptosis Index ([1]; cells expressing ORF8, ORF10 or M-protein, 2 μM, vs vehicle): this augmentation is significant; early apoptosis index (pSIVA) [1, 12]: significant increases; early apoptosis, dose-dependent effects ([1]; control plasmid (pCMV)): some significant increases; late apoptosis, dose-dependent effects ([1]; control plasmid (pCMV)): some significant increases |
| CCCc1cc(O)c2c(c1)OC(C)(C)[C@@H]1CC=C(C)C[C@@H]21 [d8-THCV, delta 8-tetrahydrocannabivarin] | significant increases | significant increase | significantly greater levels of early apoptosis | significant increase | significant increases | do not have significant increases | do not show any significant increase | – | – | – | – | – | – | significant increase | – | – | – | – | – | mean BrdU incorporation lower than in cells untreated with cannabinoids ([2]; cells expressing Orf10, 1 μM): less reduction; Late Apoptosis Index ([1]; cells expressing ORF8 or M-protein, 1 μM, vs vehicle only): significantly augmented; Early Apoptosis Index ([1]; cells expressing ORF10 or M-protein, 1 μM, vs same cells with vehicle): augmented |
